Data taken from article PMC4336329 (PLoS ONE, 2015).
The whole screen tested about 310,000 compounds, of which about 2,200 (0.71%) showed an effect of 50% or more. Effects have a minus sign here. The list shows a part of the results.

Biological target: human ether-à-go-go-related gene (hERG) potassium channel (human, UniProt Q12809)
Experiment: primary screen, population patch clamp on CHO cells stably expressing hERG

Sequence of human ether-à-go-go-related gene (hERG) potassium channel (Q12809 whole entry, looked up): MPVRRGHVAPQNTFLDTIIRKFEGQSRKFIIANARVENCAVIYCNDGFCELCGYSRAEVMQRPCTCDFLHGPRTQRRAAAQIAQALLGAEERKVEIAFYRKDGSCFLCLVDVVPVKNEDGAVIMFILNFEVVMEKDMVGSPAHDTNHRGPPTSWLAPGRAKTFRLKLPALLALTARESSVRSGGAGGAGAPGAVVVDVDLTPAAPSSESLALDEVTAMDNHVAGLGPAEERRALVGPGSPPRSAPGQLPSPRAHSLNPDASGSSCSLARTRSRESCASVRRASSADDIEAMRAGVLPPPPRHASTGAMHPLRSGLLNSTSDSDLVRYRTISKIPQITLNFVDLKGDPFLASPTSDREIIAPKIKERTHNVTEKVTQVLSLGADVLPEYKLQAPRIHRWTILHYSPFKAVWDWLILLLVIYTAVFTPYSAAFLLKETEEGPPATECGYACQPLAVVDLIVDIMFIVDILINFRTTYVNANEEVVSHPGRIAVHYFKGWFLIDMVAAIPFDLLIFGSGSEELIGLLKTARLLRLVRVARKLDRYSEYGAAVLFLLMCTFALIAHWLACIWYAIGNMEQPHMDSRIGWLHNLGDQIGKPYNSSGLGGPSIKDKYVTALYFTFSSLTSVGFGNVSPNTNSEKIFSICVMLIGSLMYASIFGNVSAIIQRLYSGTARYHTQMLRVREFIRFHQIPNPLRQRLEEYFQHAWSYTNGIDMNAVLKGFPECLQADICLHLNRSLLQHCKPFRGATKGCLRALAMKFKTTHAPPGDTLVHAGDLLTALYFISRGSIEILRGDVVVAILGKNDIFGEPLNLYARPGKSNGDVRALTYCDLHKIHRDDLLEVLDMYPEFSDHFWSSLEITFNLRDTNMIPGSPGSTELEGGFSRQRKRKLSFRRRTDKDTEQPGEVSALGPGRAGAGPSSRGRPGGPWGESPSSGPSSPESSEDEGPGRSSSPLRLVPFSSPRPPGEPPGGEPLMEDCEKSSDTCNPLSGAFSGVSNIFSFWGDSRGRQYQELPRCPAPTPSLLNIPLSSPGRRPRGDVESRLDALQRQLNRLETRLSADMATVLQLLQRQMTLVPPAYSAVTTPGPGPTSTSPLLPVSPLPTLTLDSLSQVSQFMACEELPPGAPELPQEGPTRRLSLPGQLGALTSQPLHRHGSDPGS

SMILES | hERG current change (%, negative = inhibition) at 1uM [%]
O=C(Nc1ccccc1)/C(=C\c1ccncc1)NC(=O)c1ccccc1 | 4.01
COc1ccc(Cl)cc1NC(=S)Nc1cccc(C)c1 | 14.9
O=C(CNC(=O)c1ccccc1Cl)NCC(c1cccs1)N1CCOCC1 (stereo not shown) | 9.1
CCn1c(=S)sc2c(=O)n(-c3ccccc3)c(SCC(=O)NCc3ccco3)nc21 | -19.2
COc1ccc(OC)c(C2C(C(=O)N(C)C)=C(C)Nc3nc4ccccc4n32)c1 (stereo not shown) | -2.64
CCOc1ccccc1C(=O)Nc1nnc(SCC(=O)Nc2cc(C)on2)s1 | 6.85
CCOCCCN(C(=O)CNC(=O)c1ccco1)C(C(=O)NC1CCCC1)c1cccc(OC)c1 (stereo not shown) | 6.62
CSc1ccc(C(=O)NCC(=O)O)cc1[N+](=O)[O-] | 4.62
CCc1nnc(NC(=O)c2ccc3ncsc3c2)s1 | 16.3
COc1cccc2cc(C(=O)NCCc3c[nH]c4ccccc34)c(=O)oc12 | 13
Cc1cc(C)c(C(CC(=O)c2cccs2)C(C#N)C#N)c(C)c1 (stereo not shown) | 4.34
O=C(N/N=C/c1ccccc1OCc1ccccc1Cl)c1cccnc1 | 6.93
O=C1CCN(CCc2ccccc2)CCN1CCOc1ccccc1 | -33
COCCNC(=O)Cn1cc(/C=C(\C#N)C(=O)NC2CC2)c2ccccc21 | 11
CN1CCN(C(=O)/C(=C/c2ccccc2F)NC(=O)c2ccccc2)CC1 | -2.89
COc1ccc2c(c1)CC[C@@H]1[C@@H]2CC[C@]2(C)[C@@H](C(=O)O)C[C@@H]12 | 8.15
Cc1cc(C(=O)Cn2nc(C(=O)O)c3ccccc3c2=O)c(C)n1-c1ccccc1 | 10.5
Cc1ccccc1CN1CCN(CC(=O)NCc2ccc3c(c2)OCO3)C1=O | -0.614
C=CCN1C(=O)C(C)(C)N(C(C)=O)c2ccccc21 | 5.66
CCOC(=O)Cc1csc(NC(=O)CCCC(=O)O)n1 | 12.6

SMILES | hERG current change (%, negative = inhibition) at 1uM [%]
Cc1cc(=O)[nH]c(SC(C(=O)O)c2ccccc2)n1 (stereo not shown) | -4.85
Nc1ccc(C(=O)c2cccs2)cc1 | 11.6
CCS(=O)(=O)NCCc1csc(-c2cccnc2)n1 | 20.2
CC1CCCN(CCCNC(=O)c2ccc(N3CCCC3=O)cc2)C1 (stereo not shown) | 13.9
COc1ccc(NC(=O)N/C=C/c2ccc(Cl)cc2)cc1 | 9.77
COC(=O)CCC(=O)OC1(C)C(=O)C=C2C=C(C3CC3)N(CCCOC(C)C)C=C2C1=O (stereo not shown) | 7.79
CCCSc1nc2sc3c(c2c(=O)[nH]1)CC(C)(CC)OC3 (stereo not shown) | 19.9
Cl.c1ccc(C2CSc3ccccc3N2)cc1 (stereo not shown) | 3.09
CCOc1ccccc1N1CCN(C(=O)CC(C)(C)C)CC1 | 5.31
CCOC(=O)N1CCN(C(=O)c2ccc3nc4ccc(Cl)cc4c(=O)n3c2)CC1 | 5.16
NC(=O)CC(NC(=O)Cc1ccc(Br)cc1)c1ccc(NC2CCN(Cc3ccccc3)CC2)c([N+](=O)[O-])c1 (stereo not shown) | 18.5
O=C1Nc2ccccc2C1=Nc1ccc(F)cc1 | 12.6
CCOc1ccccc1N1CCN(CC(=O)Nc2nc(C)c(C(=O)N(C)C)s2)CC1 | 3.07
CCCCC(CC(O)COCC(C)C)C(=O)NNC(=S)Nc1ccccc1 (stereo not shown) | 10.1
Cc1nc(C(C)NC(=O)c2cc(COc3ccc(F)c(F)c3)on2)cs1 (stereo not shown) | 6.73
C/C(=N\N(Cc1ccccc1)c1ccccc1)c1ccncc1.O=P(O)(O)O | 0.864
CCCCCn1c(SCCCC)nc2c1c(=O)[nH]c(=O)n2C | 0.678
CC(C)(C)NS(=O)(=O)c1ccc2nc(NC(=O)c3ccc(N4C(=O)CCC4=O)cc3)sc2c1 | 0.528
CCn1c(COc2ccccc2)nnc1SCC(=O)Nc1cc(OC)ccc1OC | 1.97
COc1cc(CNc2ccc(CNc3ncn[nH]3)cc2)ccc1OCc1ccccc1 | 9.96

SMILES | hERG current change (%, negative = inhibition) at 1uM [%]
Cc1cc(C)c(NC(=O)CSc2nnc(-c3ccco3)n2N)c(C)c1 | 6.78
Cc1cc(SCC(=O)NC(=O)c2cccn2C)nc2ccccc12 | 5.52
CCc1ccc2nc(SCC(=O)N3CCCCC3)c(C#N)cc2c1 | 10.7
O=C(COc1ccccc1)NC1=NCCS1 | 2.23
O=C(COc1ccc([N+](=O)[O-])cc1)N(C1CCCCC1)C1CCS(=O)(=O)C1 (stereo not shown) | 7.44
CC1(C)CC(NS(=O)(=O)c2ccc(F)cc2)CC(C)(C)N1 | 3.57
COc1ccc(Cn2c(=O)oc3ccc(C)cc32)cc1OC | 8.66
CCOC(=O)CNC(=O)CSc1nnc(C)c(=O)[nH]1 | 5.59
CC(=O)N1c2ccc(S(=O)(=O)N3CCCC3C(=O)Nc3cccc(F)c3)cc2CC1C (stereo not shown) | -5.82
CC(C)c1nn2c(=O)cc(O)nc2s1 | 12.6
Cc1ccc(C(CNC(=O)C(=O)Nc2ccc3c(c2)OCCO3)N2CCN(C)CC2)cc1 (stereo not shown) | -3.79
CCOC(=O)c1cc(C(=O)OCC)c(=O)[nH]c1SCc1ccccc1 | 18.3
Cc1cc(N2CCN(c3ccccc3F)CC2)nc2cc(O)ccc12.Cl | 7
CCc1ccccc1NC(=O)Cn1nc(C(F)(F)F)c2c1CCC2 | 2.3
Nc1ccc(N2CCCCC2)c(S(=O)(=O)Nc2ccccc2Cl)c1 | -16.3
CCOc1ccc(NC(=O)c2ccccc2NC(=O)c2cccnc2)cc1 | 12.3
Cc1ccc([N+](=O)[O-])cc1N(CC(=O)N1CCCCC1)S(C)(=O)=O | 12.4
CC1CCN(C(=O)c2[nH]cnc2C(=O)N[C@@H](C)C(=O)OCc2ccccc2)CC1 | 9.66
